# Test results from the BET-seq Pho4 binding data (Le et al. 2018).
# The other results are listed elsewhere or left out. Values were computed here from the reads of four pooled replicates and scatter widely.
# Molecular target: T1, Pho4 (S. cerevisiae) (UniProt P07270)
# T1 sequence: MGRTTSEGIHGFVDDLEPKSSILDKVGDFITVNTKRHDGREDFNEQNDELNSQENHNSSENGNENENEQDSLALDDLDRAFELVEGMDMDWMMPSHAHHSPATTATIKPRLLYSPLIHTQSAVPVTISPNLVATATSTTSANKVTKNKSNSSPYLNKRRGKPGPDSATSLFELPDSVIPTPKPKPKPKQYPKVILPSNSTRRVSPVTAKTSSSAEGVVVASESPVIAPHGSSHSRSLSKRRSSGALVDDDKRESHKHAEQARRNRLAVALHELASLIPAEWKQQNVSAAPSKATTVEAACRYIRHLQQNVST
# Experiment: relative binding free energy (BET-seq); higher = weaker binding
# Conditions: reference: library average
row,Sequence,relative binding free energy
1,AGTTACACGTGCGATT,0.15 kcal/mol
2,TATGACACGTGACTGT,0.13 kcal/mol
3,AGGAACACGTGGGTAT,-0.15 kcal/mol
4,GTTTGCACGTGTTATC,0.02 kcal/mol
5,ATAGTCACGTGTTGCG,0.01 kcal/mol
6,TCTCTCACGTGGGTTT,0.08 kcal/mol
7,CGTTGCACGTGTGTAG,0.17 kcal/mol
8,AGAATCACGTGTGATG,0.19 kcal/mol
9,TCGTACACGTGTTATT,0.08 kcal/mol
10,GGAGTCACGTGTCGGG,0.2 kcal/mol
11,ACTTTCACGTGGGGAT,0.08 kcal/mol
12,TTTCTCACGTGAGGCT,0.27 kcal/mol
13,GGGCGCACGTGGTCGT,-0.16 kcal/mol
14,GCGTGCACGTGGGGAT,-0.15 kcal/mol
15,TTTTTCACGTGAAATT,0.38 kcal/mol
16,AAAGTCACGTGGATTT,0.1 kcal/mol
17,GTCGGCACGTGGATTA,0.04 kcal/mol
18,TAGGTCACGTGAGCTT,0.18 kcal/mol
19,TTGAGCACGTGAGGAT,0.24 kcal/mol
20,TTTACCACGTGCTTTT,0.03 kcal/mol
21,GATTACACGTGGAAGT,0.15 kcal/mol
22,TTATTCACGTGGTAAC,0.24 kcal/mol
23,TGTCGCACGTGAAATG,0.2 kcal/mol

row,Sequence,relative binding free energy
1,CTGGCCACGTGAGGGT,0 kcal/mol
2,GGCTTCACGTGGCGTT,0.2 kcal/mol
3,CGGTTCACGTGGGATG,0.09 kcal/mol
4,AATTGCACGTGTGTCT,0.11 kcal/mol
5,TTGTGCACGTGTAATG,0.15 kcal/mol
6,GACGTCACGTGTTATT,0.24 kcal/mol
7,ATGAGCACGTGATGAG,0.15 kcal/mol
8,AATAGCACGTGAGTAT,0.21 kcal/mol
9,CGGGCCACGTGGATTT,0.15 kcal/mol
10,TATGTCACGTGGTGCA,-0.04 kcal/mol
11,GTTCGCACGTGAAGGA,0.37 kcal/mol
12,TGGTTCACGTGCTGCT,0.26 kcal/mol
13,TAATTCACGTGAGATT,0.52 kcal/mol
14,AGGATCACGTGTAGAT,0.27 kcal/mol
15,GTTGGCACGTGCTGCG,-0.22 kcal/mol
16,GATCTCACGTGGGGGT,0.14 kcal/mol
17,TGTCGCACGTGAGTCT,0.16 kcal/mol
18,AGTAACACGTGTCGGT,0.02 kcal/mol
19,GGTGTCACGTGACTGT,0.27 kcal/mol
20,AGCGACACGTGGGGTT,-0.05 kcal/mol
21,ATTAGCACGTGCGTTT,0.01 kcal/mol
22,GTTGGCACGTGCGTAT,-0.13 kcal/mol
23,GGTATCACGTGGTGAT,0.11 kcal/mol

row,Sequence,relative binding free energy
1,GTGGCCACGTGTCTGG,-0.1 kcal/mol
2,ATGGGCACGTGTACGG,-0.11 kcal/mol
3,TGTTCCACGTGATGTT,0.2 kcal/mol
4,TTTGACACGTGTTAGC,0.18 kcal/mol
5,ATACTCACGTGTGGGA,0.29 kcal/mol
6,TGGGTCACGTGAGCTA,0.28 kcal/mol
7,AAGGTCACGTGGGAGT,-0.04 kcal/mol
8,TCGGGCACGTGTGGCA,-0.05 kcal/mol
9,TTATGCACGTGAGAAG,0.15 kcal/mol
10,ATTATCACGTGGAAAG,0.15 kcal/mol
11,ATTGGCACGTGGATGA,-0.03 kcal/mol
12,GTCGACACGTGGTAGT,0.17 kcal/mol
13,AGTTGCACGTGTAGCT,-0.09 kcal/mol
14,CGGGTCACGTGAGTCG,0.29 kcal/mol
15,AGGGGCACGTGCGGGT,-0.18 kcal/mol
16,TGGTCCACGTGTGGCA,0.16 kcal/mol
17,GGCGTCACGTGGAAGT,0.26 kcal/mol
18,GGATACACGTGTTGGC,0.16 kcal/mol
19,TGTGTCACGTGTAATT,0.28 kcal/mol
20,TTCAGCACGTGGAAGT,-0.01 kcal/mol
21,TATGACACGTGGGAGT,-0.05 kcal/mol
22,GTAATCACGTGAGTAT,0.37 kcal/mol
23,TGGTTCACGTGTTAGC,0.35 kcal/mol

row,Sequence,relative binding free energy
1,GAATTCACGTGATATG,0.29 kcal/mol
2,GTTGCCACGTGAGTGC,0.19 kcal/mol
3,TTTTCCACGTGACGGT,0.21 kcal/mol
4,AGGGACACGTGTTTGG,0.01 kcal/mol
5,GGGTCCACGTGTTCAT,0.28 kcal/mol
6,CAAGGCACGTGGTTAG,-0.24 kcal/mol
7,AGTGTCACGTGTGCTT,0.06 kcal/mol
8,GTTTTCACGTGATTGA,0.49 kcal/mol
9,GAGTACACGTGGCCGG,0.21 kcal/mol
10,CGTTGCACGTGGAAAG,0.09 kcal/mol
11,TGGGCCACGTGCGTTG,-0.17 kcal/mol
12,GTCTCCACGTGGGGGT,-0.14 kcal/mol
13,GCGTTCACGTGGGTCT,0.2 kcal/mol
14,GGCGGCACGTGGGAAT,-0.03 kcal/mol
15,GCGTTCACGTGGTATT,0.36 kcal/mol
16,GGATTCACGTGACGGT,0.44 kcal/mol
17,TTCGGCACGTGGTGCG,-0.31 kcal/mol
18,TTTATCACGTGTAAAA,0.28 kcal/mol
19,TAGTGCACGTGATGTG,0.1 kcal/mol
20,GAACGCACGTGCGGGT,-0.05 kcal/mol
21,GAGTGCACGTGGTGCG,-0.08 kcal/mol
22,AGGAACACGTGCAGGG,-0.03 kcal/mol
23,CGGGGCACGTGTAGAA,0.15 kcal/mol

row,Sequence,relative binding free energy
1,GGTTGCACGTGTTCGG,-0.05 kcal/mol
2,TGGTTCACGTGATATG,0.36 kcal/mol
3,AGTATCACGTGGTGTC,-0.1 kcal/mol
4,GTGTTCACGTGTCTGG,0.33 kcal/mol
5,AGGTACACGTGGGTAG,0.03 kcal/mol
6,TTGGCCACGTGTTTGA,0.11 kcal/mol
7,CGGTACACGTGAGTGG,0.3 kcal/mol
8,TGGCGCACGTGTTAAG,0.02 kcal/mol
9,GGATGCACGTGGTCTT,0.05 kcal/mol
10,AATTTCACGTGTTTGA,0.15 kcal/mol
11,ATACACACGTGTGTGG,0.14 kcal/mol
12,TTTCTCACGTGGCGGG,0.11 kcal/mol
13,TCAGTCACGTGATATG,0.21 kcal/mol
14,AGGATCACGTGGGGTC,-0.02 kcal/mol
15,TTTTTCACGTGACCGT,0.25 kcal/mol
16,CTGGGCACGTGTGGTA,-0.08 kcal/mol
17,TGCAGCACGTGTGGCG,-0.01 kcal/mol
18,TTTGGCACGTGATCTA,-0.04 kcal/mol
19,ATGCACACGTGGGGTG,-0.22 kcal/mol
20,ATCGTCACGTGAGGGA,0.19 kcal/mol
21,TGCTGCACGTGGGTAG,-0.09 kcal/mol
22,TTAGACACGTGTTGAT,-0.06 kcal/mol
23,GATATCACGTGTGTAT,0.11 kcal/mol
